Over roughly 33,000 sequences, “E-score (-0.5 to 0.5)” has its median near -0.017; the highest 2% begin near 0.3. The list shows a part of the results.

We go through 94 sequences from the supplement of paper PMC3334620.

The assay has as its target T1, Sut1 (UniProt P53032).
T1 sequence: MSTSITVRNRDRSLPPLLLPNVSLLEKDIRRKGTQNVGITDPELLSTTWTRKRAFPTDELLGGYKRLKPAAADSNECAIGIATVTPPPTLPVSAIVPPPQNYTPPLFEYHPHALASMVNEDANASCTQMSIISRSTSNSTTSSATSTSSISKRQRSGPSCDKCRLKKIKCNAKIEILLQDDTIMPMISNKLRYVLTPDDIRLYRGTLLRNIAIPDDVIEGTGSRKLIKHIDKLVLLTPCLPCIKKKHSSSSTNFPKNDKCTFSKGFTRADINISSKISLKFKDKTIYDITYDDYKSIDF
The assay is described as follows: PBM E-score (8-mer binding enrichment) (E-score (-0.5 to 0.5)); higher = stronger / more preferred TF binding; most listed sequences are background and not binding sites. The note with it: protein concentration: 200 nM; construct: GST-full length. Here is the method: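 Universal 'all 10-mer' protein binding microarrays (Agilent AMADID 015681) probed with GST-tagged S. cerevisiae TFs (full-length or DBD) made by in vitro transcription/translation (PURExpress), about 100-200 nM. Bound TF was detected with fluorescent anti-GST. Each ungapped 8-mer (which stands for itself and its reverse complement) is scored by the PBM enrichment score (E-score), a modified Wilcoxon-Mann-Whitney statistic from -0.5 to +0.5, computed with the Universal PBM Analysis Suite. Scale: above 0.35 generally sequence-specific binding.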
Consider CTACCGTA, for which the “PBM E-score” value was 0.0306.
The figure for ACCGTTTC is -0.06.
The figure for CGGGTTGC is -0.144.
With AGGTGTAT, the “PBM E-score” value is -0.0667.
On to CTACTCCC, for which the “PBM E-score” value was -0.139.
The figure for ATGATATA is 0.153.
Turning to CTTGGGAC, the “PBM E-score” value was -0.224.
The same measure for CGTAAACG: -0.196.
The same measure for ACGGTTAC: 0.0273; for ATAGCACA: 0.083; for AGGGGATA: -0.261.
Turning to CCTTAACA, the “PBM E-score” value is -0.112.
The same measure for AGAGTCTC: -0.0242; for CCGCAATC: 0.128; for ATTTAGTG: 0.196.
The same measure for TAATAGCA: -0.0305; for ATCTTCCG: 0.126.
The same measure for ACCGATCT: -0.0267.
As to AAGCATCG, the “PBM E-score” value came out at 0.0311.
The same measure for CGATGAAG: 0.0664; for AGACGAAT: 0.0727; for GCCCCCGA: -0.227.
The figure for ATTTCTTA is 0.0841; for ACTGTTGG it is -0.0953; for ATACAAAT it is 0.312.
Take ACGGCTTC: the “PBM E-score” value was -0.0566.
The figure for GAGAATGA is 0.15; for GTTGATAA it is 0.197; for GGCCTCCA it is -0.306.
On to CGACCACG, for which the “PBM E-score” value was -0.0702.
With CTGCAGCC, the “PBM E-score” value is -0.287.
As to GTCCGCGA, the “PBM E-score” value came to 0.347.
The figure for ATCGCCGC is 0.0642; for AAGGTGCC it is -0.119.
For CTGACAAC, the “PBM E-score” value was -0.213.
The figure for AGTATGGC is -0.25; for AGGTTTCG it is -0.0234; for ATCAGGAC it is -0.0525.
The figure for AAGCTGAA is 0.0914.
The same measure for GGAGCACC: -0.167; for ACTTGCCG: -0.0958.
With ATCGAGTG, the “PBM E-score” value amounted to 0.0131.
The same measure for GTGTGACA: -0.182; for CGGATCGC: -0.0447; for GGACGGCA: -0.0542.
For the sequence ATTTCTCC, the “PBM E-score” value came out at 0.131.
The figure for AACTTTCT is 0.16.
The same measure for ATAGTAGC: 0.134.
As for CGTGGCCA, the “PBM E-score” value is -0.322.
The same measure for GGAAGGCA: -0.0759; for CCATTTTA: 0.178; for AATGCGCC: 0.00412.
Regarding CGCATGAG, the “PBM E-score” value is -0.339.
The figure for AACGTATA is 0.0992; for ATTCGTCG it is 0.132.
Take ATTACAAT: the “PBM E-score” value stood at 0.151.
In the case of TGGTGTAA, the “PBM E-score” value is -0.0711.
With AACTAAAA, the “PBM E-score” value turned out to be 0.31.
For AAACTACG, the “PBM E-score” value was 0.072.
The figure for CACTCCCA is -0.0412.
The figure for CGGAAAAC is 0.283; for CATAGATC it is -0.108.
For CCCCTCGC, the “PBM E-score” value is -0.28.
The figure for AATGCAGA is 0.0221; for CGTTCGAA it is 0.121; for GCTGATAA it is 0.11.
The same measure for GGACTACA: 0.227; for TAAAGCGA: 0.141.
ATGGGTAC: the “PBM E-score” value is -0.0584.
The figure for CACGATGC is -0.209; for AGTTTAGG it is 0.0512.
The figure for AACCATCT is -0.00764.
Take CTTCGTCC: the “PBM E-score” value is -0.108.
The figure for GAGCGGTA is -0.144; for ACAAAAGA it is 0.192.
The same measure for AGTCCGCA: 0.441.
The figure for CGTCCGTC is -0.154.
TCTTGTCA: the “PBM E-score” value came to 0.0923.
The figure for GATCACTA is 0.0437.
The figure for AACGTCCG is 0.0822.
The same measure for TAAATTTA: 0.292; for CGATAATA: 0.263.
In the case of GCTACCTA, the “PBM E-score” value is -0.00803.
Take GTTCCCTA: the “PBM E-score” value was -0.238.
ACTACGAA: the “PBM E-score” value was determined as 0.0609.
The same measure for GTGATGCA: 0.0515.
On to TACGCGTA, for which the “PBM E-score” value was -0.0808.
As to GTGGAGAA, the “PBM E-score” value was -0.0819.
The figure for CCTTCGCA is -0.178.
With CCTGGAAA, the “PBM E-score” value is -0.099.
The figure for CGGGTTGA is -0.223; for AAACGGCC it is -0.00943; for CTCAGCAC it is -0.359.
On to CACCAGCA, for which the “PBM E-score” value was -0.147.
